# Results reported in PubChem BioAssay AID1240 (Sanford-Burnham Center for Chemical Genomics, 2008).
# About 800 (1.6%) of roughly 50,000 compounds showed an effect of 50% or more. Some of the results follow.
# Target: Bcl-2-like protein 10 (Homo sapiens) (UniProt Q9HD36)
# Test: Phenotype converters, Bcl-B/TR3 peptide binding displacement, primary biochemical FP (AID 1240);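 also: 0% = Bcl-B with tracer peptide and DMSO and 100% = tracer peptide lacking Bcl-B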
# Conditions: GST-Bcl-B / FITC-TR3 peptide fluorescence polarization; stronger effect = higher value; compound at 3.75 mg/L
# Sequence of UniProt Q9HD36 (Q9HD36 whole entry, looked up): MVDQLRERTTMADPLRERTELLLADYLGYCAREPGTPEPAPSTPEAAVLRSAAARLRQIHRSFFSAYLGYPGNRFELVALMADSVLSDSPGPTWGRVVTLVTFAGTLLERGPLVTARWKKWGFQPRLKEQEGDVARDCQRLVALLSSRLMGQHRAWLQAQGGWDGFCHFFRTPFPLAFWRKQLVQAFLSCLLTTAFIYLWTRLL
row,Compound,displacement
1,O=[N+]([O-])c1ccc2nc(SCc3nc4ccccc4[nH]3)sc2c1,3.8%
2,O=C1N/C(=N\N=C\c2ccco2)SC1Cc1cc(Cl)ccc1Cl (stereo not drawn),-0.4%
3,CC(=O)c1ccc(NC(=O)c2cc3ccccc3o2)cc1,4.7%
4,O=C(CSc1nc2ccccc2o1)OCC(=O)c1ccc(Cl)cc1,-0.4%
5,CCOC(=O)C1NN=C(C(=O)c2ccccc2)C1c1ccccc1 (stereo not drawn),3.7%
6,Cc1cc(C)c(NC(=O)C2CCCN2CCCO)c(C)c1 (stereo not drawn),-10.7%
7,O=C(Cc1ccccc1)NC(c1ccco1)c1c(O)ccc2ccccc12 (stereo not drawn),14.3%
8,NNc1ccc(/C=C/c2ccc(NN)cc2S(=O)(=O)O)c(S(=O)(=O)O)c1,3.6%
9,CC(C)c1ccc(/C=N/NC(=O)c2cc(-c3ccc(Cl)cc3)n[nH]2)cc1,-12.7%
10,COc1ccc(C(=O)O/N=C(\N)c2ccccc2)cc1,-9.3%
11,CCOC(=O)COc1ccc(/C=C2\SC(=Nc3cccc(Cl)c3C)NC2=O)cc1OCC,-17.5%
12,CCOC(=O)C1=C(C)N(c2ccc(OCC)cc2)C(=O)C1,3.9%
13,Cc1ccc(-c2nc3sc4c(c3c(=O)o2)CCCCC4)cc1,41.1%
14,O=C1NC(=S)N(c2ccccc2)C(=O)/C1=C/c1cc(Br)c(O)c(Br)c1,-4.6%
15,O=C(CCN1C(=O)/C(=C\c2cccs2)SC1=S)Nc1cc(Cl)ccc1O,42.1%
16,Cc1ccc2c(Cl)c(C(=O)NCc3ccccn3)sc2c1,-12.1%
17,O=C(Nc1ccccc1C(=O)O)c1cccc(S(=O)(=O)NC2CCCCC2)c1,-12.6%
18,CC(C)OC(=O)COc1ccc2c3c(c(=O)oc2c1)CCC3,0.6%
19,Cc1cc(C)cc(NC(=O)C2C3C=CC(O3)C2C(=O)O)c1 (stereo not drawn),11.6%
20,O=c1[nH]c(=O)n(Cc2ccccc2)c(O)c1/C=C1\C=CC=N1,48.7%
21,CCN(CC)c1ccc(/C=N/NC(=O)c2cc(Br)ccc2O)c(O)c1,-6.4%
22,COc1nnc(-c2ccc(C)cc2)c2ccccc12,-9.7%

row,Compound,displacement
1,COc1ccc(OCC(=O)NCCSCc2ccc(Cl)cc2)cc1,0.8%
2,CCOc1cc(C(=O)NCc2ccncc2)cc(OCC)c1OCC,-2.1%
3,CCOC(=O)COc1ccc(/C=C2\C(=O)NC(=O)N(c3ccc(Cl)cc3)C2=O)cc1OCC,12.9%
4,CCOC(=O)c1c(NC(=O)c2ccc(Cl)cc2)sc(C(=O)Nc2ccccc2OCC)c1C,3.5%
5,O=C(NCCOc1ccccc1)C(O)(c1ccc(F)cc1)c1ccc(F)cc1,-10.9%
6,Cc1ccccc1COc1ccc2oc(C)c(C(=O)O)c2c1,9.4%
7,COc1cc(/C=C2\SC(=S)N(NC(=O)c3ccccc3Br)C2=O)ccc1O,-21.3%
8,Cc1ccc(S(=O)(=O)Oc2ccc(Br)cc2C=C2C(=O)NC(=S)NC2=O)cc1,-16.9%
9,Cc1cc(OCC(=O)O/N=C(\N)c2ccc(Cl)cc2)ccc1Br,0.4%
10,CC1=C(C(=O)OCc2ccccc2)C(c2ccccc2Cl)NC(=O)N1 (stereo not drawn),14.7%
11,O=C(Nc1cccc(Br)c1)/C(=C\c1cccs1)NC(=O)c1cccs1,-5%
12,O=S(=O)(Nc1ccc(Cl)cn1)c1ccc2ccccc2c1,-4.2%
13,COc1ccccc1N1CCN(/N=C2/C(=O)Nc3ccccc32)CC1,3.9%
14,CC1CCN(CCC(=O)N/N=C/c2ccc([N+](=O)[O-])cc2)CC1,-10.9%
15,CCOC(=O)C(CC)Oc1ccc2c(C)c(CC)c(=O)oc2c1C (stereo not drawn),-2.4%
16,Cn1c2c(c(=O)n(C)c1=O)C(c1ccccc1)C1=C(N2)c2ccccc2C1=O (stereo not drawn),5.8%
17,Cc1ccc(N(CC(=O)O)S(C)(=O)=O)cc1C,8.2%
18,Cc1cc(NS(=O)(=O)c2ccc(NC(=O)C(Cl)(Cl)Cl)cc2)nc(C)n1,1.3%
19,CC(=O)c1cccc(NC(=O)c2ccccc2N(Cc2ccccc2)S(=O)(=O)c2ccccc2)c1,3%
20,C/C(=N\NC(=O)c1ccccc1[N+](=O)[O-])c1c(O)cc(C)oc1=O,-3.1%
21,O=C(/C=C/c1ccco1)Nc1cccc(F)c1,-0.3%
22,COC(=O)CNC(=O)c1ccc(NC(C)=O)cc1,10%

row,Compound,displacement
1,CCOC(=O)c1oc2c(c1C)/C(=N/OC(C)=O)CCC2,-2.3%
2,O=C(Cc1ccccc1)NC(NC(=S)Nc1ccccc1Cl)C(Cl)(Cl)Cl (stereo not drawn),3.9%
3,COc1cc(/C=c2\sc3nc4ccccc4n3c2=O)ccc1OS(=O)(=O)c1ccccc1,13.4%
4,CCOC(=O)/C(C#N)=C\c1ccc(F)cc1,2.3%
5,Cc1ccccc1-c1cc(C(=O)Nc2ncccc2C)c2ccccc2n1,-39.1%
6,Cc1ccc(S(=O)(=O)N(CC(O)CN2CCOCC2)c2cccc3ccccc23)cc1 (stereo not drawn),-1.2%
7,Cc1cc(OCC(=O)NCCCN(C)C)ccc1Br,0.7%
8,O=C(Nc1ccc(Cl)c(Cl)c1)c1cnn2c1NC(c1ccccc1)CC2C(F)(F)F (stereo not drawn),-10.4%
9,Cc1c(NC(=O)CCN2C(=O)c3ccccc3C2=O)c(=O)n(-c2ccccc2)n1C,-13.6%
10,COc1ccc(C2=N/C(=C/c3ccccc3OC)C(=O)N2c2ccccc2)cc1,6.4%
11,Nc1nnc(SCc2ccccc2F)s1,1.4%
12,Cc1ccc(/C=C2\SC(=S)N(NC(=O)c3cccc([N+](=O)[O-])c3)C2=O)cc1,-1.6%
13,C/C=C/COC(=O)C1=C(C)NC(=O)NC1c1ccccc1F (stereo not drawn),3%
14,O=C(Nc1nc(C23CC4CC(CC(C4)C2)C3)cs1)C(=O)NC1CC1,-3.8%
15,O=C1CCCCC1C(Nc1ccc2ncccc2c1)c1ccc(F)cc1 (stereo not drawn),2.3%
16,O=C(Nc1ccc(-c2nc3ccccc3s2)cc1)c1cccc(C(F)(F)F)c1,9.6%
17,CCOC(=O)C1=C(C)NC2=C(C(=O)CCC2)C1c1ccc(Br)s1 (stereo not drawn),7.9%
18,O=C(O)c1ccc(-c2n[nH]c(=O)c3ccccc23)cc1,29.5%
19,Cc1ccc2nc(NC(=O)c3cccc4ccccc34)sc2c1,-6.7%
20,Cc1ccc(S(=O)(=O)C(CC(=O)c2cccs2)c2ccc(Cl)cc2)cc1 (stereo not drawn),-0.9%
21,O=C(NC(=S)Nc1cc(-c2nc3ccccc3s2)ccc1Cl)c1ccc(Cl)cc1,37.3%
22,O=C1CC(Cc2ccc(Br)cc2)C(=O)N1Cc1ccccc1 (stereo not drawn),9.6%

row,Compound,displacement
1,O=C(NCc1ccncc1)c1ccc(-c2ccccc2)cc1,3.6%
2,COc1cc(OC)cc(C(=O)Nc2ccc(N3CCOCC3)cc2)c1,-1.3%
3,Cc1ccc2oc(-c3cc(NC(=O)/C=C/c4cccc([N+](=O)[O-])c4)ccc3O)nc2c1,4.7%
4,CC(N=Cc1ccc(O)cc1)C1COc2ccccc2O1 (stereo not drawn),1.4%
5,CCCCCc1ccc(-c2ccc(-c3ncc([N+](=O)[O-])cn3)cc2)cc1,1.7%
6,Cc1cccc(OCCn2cc(C=C3C(=O)NC(=S)NC3=O)c3ccccc32)c1,11.2%
7,O=C1NN(c2ccccc2)C(=O)/C1=C\c1cccc(I)c1,23%
8,COc1ccc(OC(=O)c2ccc(Br)c(S(=O)(=O)N3CCCCC3)c2)cc1,-12%
9,CCc1nnc(NC(=O)c2ccc(Br)o2)s1,24.7%
10,Cc1ccc(C(=O)NCCN2Cc3ccccc3C2=O)cc1,10.5%
11,O=C(Nc1ccccc1)Nc1nnc(-c2ccccc2F)s1,10%
12,COc1ccc(OC)c(Nc2nc3nonc3nc2N2CCCCC2)c1,2.3%
13,CCOc1ccc(N(CC(=O)NCCCN(C)C)S(C)(=O)=O)cc1,3.2%
14,O=C(NC(=S)Nc1ccc(NC(=O)c2ccc(Cl)cc2Cl)cc1)c1ccccc1,9%
15,COc1ccc(N(Cc2ccc(C(=O)NCc3ccccc3OC)cc2)S(=O)(=O)c2ccccc2)cc1,9.6%
16,CCOc1cc(C(=O)NCc2ccco2)cc(OCC)c1OCC,5.4%
17,N#Cc1ccc(/C=N/Nc2nc(-c3ccccc3)cs2)cc1,-23.2%
18,Cc1cccc(N2C(=O)NC(=O)/C(=C/c3ccccc3C)C2=O)c1,-13.5%
19,O=C1c2cccc3cccc(c23)C(=O)N1CCN1CCN(S(=O)(=O)c2ccc(I)cc2)CC1,-6.9%
20,Cc1n[nH]c(C)c1CCC(=O)N/N=C/c1ccc(O)cc1,-14.1%
21,O=C(NN1C(=O)c2ccc(C(=O)c3ccc4c(c3)C(=O)N(NC(=O)c3ccncc3)C4=O)cc2C1=O)c1ccncc1,0.2%
22,O=C(CC1S/C(=N\N=C\c2ccco2)NC1=O)Nc1cccc(Cl)c1Cl (stereo not drawn),11%

row,Compound,displacement
1,COc1c(Cl)cc(C(=O)Nc2cccc(C)c2)cc1Cl,3.1%
2,O=C(CCNc1ccc(Br)cc1)c1cccc([N+](=O)[O-])c1,-10.4%
3,COc1cccc(NC2=NS(=O)(=O)c3cc([N+](=O)[O-])ccc32)c1,7.4%
4,O=C(Nc1cccc(O)c1)c1ccc2c(c1)C(=O)N(c1ccccn1)C2=O,4.3%
5,O=C(O)/C=C/c1ccc(S(=O)(=O)Nc2ccccn2)cc1,-5.9%
6,CN1C(=O)C(=Cc2cccc(Cl)c2Cl)C(=O)N(C)C1=O,14.5%
7,COc1ccccc1/C=N/NC(=O)COc1c(Br)cc(Br)cc1Br,14.7%
8,COc1ccc(C(=O)NCCN2CCN(C(=O)c3ccc(OC)cc3)CC2)cc1,3.2%
9,COc1cccc2c(Cl)cc(C)nc12,10.6%
10,Cc1cc(C)cc(-n2c(O)c(/C=C3\C=Nc4ccccc43)c(=O)[nH]c2=O)c1,71.2%
11,COC(=O)C1=C(C)NC(=O)CC1c1cc(Br)ccc1F (stereo not drawn),-6.5%
12,O=C(NCc1cccs1)c1cc2n(n1)C(C(F)(F)F)CC(c1cccs1)N2 (stereo not drawn),0%
13,CCOP(=O)(CN(C)S(=O)(=O)c1ccc(Br)cc1)OCC,16.7%
14,O=C(CN(Cc1ccccc1)S(=O)(=O)c1ccccc1)NC1CCCCC1,10.6%
15,Cc1ccc(C(O)(C(=O)NCCO)c2ccc(C)cc2)cc1,-2.2%
16,Cc1cc(Oc2ccc(F)cc2)c(F)cc1[N+](=O)[O-],-1.8%
17,CCOC(=O)C1=C(C)NC2=C(C(=O)c3ccccc32)C1c1ccc2c(c1)OCO2 (stereo not drawn),5%
18,Cc1ccccc1OCC(=O)Nc1cccc(-c2nc3ccccc3[nH]2)c1,24.9%
19,COc1ccc(/C=C2\SC(=S)N(NC(=O)c3ccccc3Br)C2=O)cc1OC,9.1%
20,Cc1cccc(C2C3(OC(c4ccc(Br)cc4)C24C(=O)c2ccccc2C4=O)C(=O)c2ccccc2C3=O)c1 (stereo not drawn),7.3%
